# Out of some 39,000 compounds screened, about 220 (0.56%) showed activity. Some of the results follow.
# System: Escherichia coli K-12 BW25113
# Assay: relative growth (OD600 normalised to plate interquartile mean) (fraction); higher = less growth inhibition, active = 0.2 or less
# Settings: 50 µM; LB; incubation time: overnight (16-24 h)
# 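Also: static incubation at 37 °C against the wild-type strain, values averaged over two biological replicates.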
row,SMILES,relative growth
1,CCc1ccc(NC(=O)Cc2coc3ccc(C(C)C)cc23)cc1,inactive: 1.06
2,CC(C)NC(=O)Nc1ccc2c(c1)CC(=O)N([C@H](C)CO)C[C@H](C)[C@@H](CN(C)S(=O)(=O)c1ccccc1)O2,inactive: 0.975
3,Cc1ccc(S(=O)(=O)Nc2ccc3c(c2)C(=O)N([C@H](C)CO)C[C@H](C)[C@@H](CN(C)C(=O)Nc2c(C)noc2C)OCCCC[C@@H](C)O3)cc1,inactive: 1.02
4,COc1ccc(NC(=O)N(C)C[C@@H]2OCCCC[C@@H](C)Oc3ccc(NS(=O)(=O)c4cccs4)cc3C(=O)N([C@H](C)CO)C[C@@H]2C)cc1,inactive: 0.994
5,Cc1nccn1C[C@H](C)C(=O)O,inactive: 1.01
6,CC(C)CC#Cc1ccc2c(c1)O[C@@H](CN(C)S(=O)(=O)c1ccc(F)cc1)[C@H](C)CN([C@H](C)CO)S2(=O)=O,inactive: 1.06
7,C[C@@H]1CN([C@H](C)CO)C(=O)c2cccc(NC(=O)CCCCCC(=O)Nc3ccccc3N)c2O[C@@H]1CN(C)C(=O)Nc1ccc(C(F)(F)F)cc1,inactive: 0.965
8,C[C@@H]1CCCCO[C@@H](CN(C)Cc2ccncc2)[C@H](C)CN([C@H](C)CO)C(=O)c2cc(NC(=O)Cc3ccccc3)ccc2O1,inactive: 0.982
9,C[C@H]1CN([C@@H](C)CO)C(=O)c2cc(NC(=O)Cc3ccccc3)ccc2O[C@H]1CN(C)S(=O)(=O)c1ccccc1,inactive: 1.03
10,Cc1noc(C)c1NC(=O)N(C)C[C@@H]1OCCCC[C@@H](C)Oc2ccc(NC(=O)NC3CCCCC3)cc2C(=O)N([C@@H](C)CO)C[C@H]1C,inactive: 1.04
11,Cc1cc(C)nc(C#N)n1,inactive: 1
12,Cc1ccc(S(=O)(=O)Nc2ccc3c(c2)CC(=O)N([C@H](C)CO)C[C@H](C)[C@@H](CN(C)Cc2ccc(Oc4ccccc4)cc2)O3)cc1,inactive: 0.99
13,COc1cccc(-c2cn(CC[C@@H]3CC[C@@H](NS(=O)(=O)c4ccccc4Cl)[C@H](CO)O3)nn2)c1,inactive: 1.07
14,C[C@@H]1CN([C@H](C)CO)C(=O)c2cccc(NC(=O)Nc3ccc(C(F)(F)F)cc3)c2O[C@@H]1CN(C)S(=O)(=O)c1ccc(F)cc1,inactive: 0.854
15,C[C@H](CO)N1C[C@H](C)[C@@H](CN(C)Cc2ccc(C(F)(F)F)cc2)Oc2ccc(NC(=O)Nc3cccc4ccccc34)cc2CC1=O,inactive: 1.09
16,C[C@@H]1CN([C@@H](C)CO)C(=O)c2cc(NS(=O)(=O)c3cn(C)cn3)ccc2O[C@H]1CN(C)Cc1ccc(C(=O)Nc2ccccc2N)cc1,inactive: 1
17,O=C1C(=Cc2cccs2)CCCC1=Cc1cccs1,inactive: 1.06
18,CC(C)CC#Cc1cnc2c(c1)C(=O)N([C@H](C)CO)C[C@@H](C)[C@H](CN(C)C(=O)CCN1CCCCC1)O2,inactive: 0.98
19,CC(C)NC(=O)N(C)C[C@@H]1Oc2ccc(NS(=O)(=O)c3cccs3)cc2CC(=O)N([C@H](C)CO)C[C@@H]1C,inactive: 1.01
20,NS(=O)(=O)c1ccc(C(=O)O)cc1,inactive: 0.924

row,SMILES,relative growth
1,C[C@H]1CN([C@@H](C)CO)C(=O)c2cc(NC(=O)Nc3ccc(C(F)(F)F)cc3)ccc2O[C@@H]1CN(C)C(=O)Nc1ccc(F)cc1,inactive: 1.02
2,COc1ccccc1CNC(=O)C[C@@H]1CC[C@H]2[C@@H](COC[C@H](O)CN2C(=O)Nc2ccc(Cl)cc2)O1,inactive: 0.949
3,C[C@@H]1CN([C@H](C)CO)C(=O)c2cc(NS(=O)(=O)c3ccc(Cl)cc3)ccc2O[C@@H](C)CCCCO[C@H]1CN(C)S(=O)(=O)c1cccs1,inactive: 1.03
4,COc1ccc(NC(=O)N[C@@H]2CC[C@@H](CCNC(=O)CN3CCOCC3)O[C@@H]2CO)cc1,inactive: 1.04
5,C[C@@H]1CCCCO[C@@H](CN(C)C(=O)Nc2ccc(F)cc2)[C@H](C)CN([C@@H](C)CO)C(=O)c2cc(NC(=O)Nc3ccc4c(c3)OCO4)ccc2O1,inactive: 1.04
6,C[C@@H]1CN([C@@H](C)CO)C(=O)c2cc(NC(=O)CCN3CCOCC3)ccc2O[C@@H]1CN(C)Cc1ccncc1,inactive: 0.997
7,O=C(C[C@H]1CC[C@@H]2[C@H](COC[C@H](O)CN2S(=O)(=O)c2cccc(Cl)c2)O1)NCCCN1CCOCC1,inactive: 0.986
8,CO[C@H](CN(C)C(=O)c1ccccc1F)[C@H](C)CN([C@H](C)CO)S(=O)(=O)c1ccc(Cl)cc1,inactive: 0.976
9,C[C@@H]1CN([C@H](C)CO)S(=O)(=O)c2ccc(Br)cc2O[C@H]1CN(C)C(=O)C1CCCCC1,inactive: 0.976
10,C[C@H](CO)N1C[C@H](C)[C@@H](CN(C)C(=O)Nc2cccc3ccccc23)OCc2cnnn2CCCC1=O,inactive: 0.982
11,C[C@H]1CN([C@@H](C)CO)S(=O)(=O)c2ccc(C#Cc3ccncc3)cc2O[C@H]1CN(C)C(=O)c1ccncc1,inactive: 0.961
12,Cc1noc(C)c1S(=O)(=O)Nc1ccc2c(c1)CC(=O)N([C@@H](C)CO)C[C@@H](C)[C@H](CN(C)CC1CC1)O2,inactive: 1
13,Cc1cc(C(=O)Nc2cccc3c2O[C@@H](CN(C)S(=O)(=O)c2c(C)noc2C)[C@@H](C)CN([C@@H](C)CO)C3=O)n(C)n1,inactive: 0.982
14,O=C(C[C@@H]1CC[C@@H]2[C@H](COC[C@@H](O)CN2S(=O)(=O)c2ccccc2)O1)NCc1ccncn1,inactive: 0.995
15,COc1ccc(NC(=O)N(C)C[C@@H]2Oc3c(NC(=O)CCCCCC(=O)Nc4ccccc4N)cccc3C(=O)N([C@H](C)CO)C[C@H]2C)cc1,inactive: 1.01
16,COc1ccc(CN(C)C[C@H]2OCCCC[C@@H](C)Oc3ccc(NS(=O)(=O)c4ccc(F)cc4)cc3C(=O)N([C@H](C)CO)C[C@H]2C)cc1,inactive: 1.01
17,C[C@@H]1CCCCO[C@H](CN(C)S(=O)(=O)c2cn(C)cn2)[C@H](C)CN([C@@H](C)CO)C(=O)c2cc(NC(=O)Nc3ccc(C(F)(F)F)cc3)ccc2O1,inactive: 1.01
18,COCC#Cc1cnc2c(c1)C(=O)N([C@@H](C)CO)C[C@H](C)[C@@H](CN(C)C(=O)c1cnccn1)O2,inactive: 1.04
19,Cc1noc(C)c1NC(=O)N(C)C[C@H]1Oc2c(NS(=O)(=O)c3c(C)noc3C)cccc2C(=O)N([C@H](C)CO)C[C@H]1C,inactive: 0.978
20,COc1ccc(NC(=O)Nc2ccc3c(c2)C(=O)N([C@H](C)CO)C[C@H](C)[C@@H](CN(C)Cc2ccc(Cl)c(Cl)c2)OCCCC[C@H](C)O3)cc1,inactive: 1.01

row,SMILES,relative growth
1,CN1C(=O)c2cc(NC(=O)c3cscn3)ccc2OC[C@H]2O[C@H](CC(=O)N3CCOCC3)CC[C@@H]21,inactive: 0.999
2,Cc1ccc(S(=O)(=O)Nc2ccc3c(c2)C(=O)N([C@@H](C)CO)C[C@H](C)[C@H](CN(C)CC2CCCCC2)OCCCC[C@@H](C)O3)cc1,inactive: 0.96
3,CO[C@@H]1CN(C)C(=O)c2ccc(NS(=O)(=O)CC(F)(F)F)cc2OC[C@H](C)N(C(=O)NC(C)C)C[C@H]1C,inactive: 0.992
4,Nc1ncnc2c1ncn2[C@H]1O[C@@H](CO)[C@H](O)[C@@H]1S,inactive: 0.999
5,Cc1noc(C)c1NC(=O)N(C)C[C@@H]1Oc2ccc(NC(=O)CCCN(C)C)cc2C(=O)N([C@@H](C)CO)C[C@H]1C,inactive: 1.03
6,O=C(C[C@H]1C=C[C@@H](NC(=O)Cc2ccccn2)[C@@H](CO)O1)NCCc1ccncc1,inactive: 0.952
7,O=C(C[C@H]1CC[C@H]2[C@@H](COC[C@H](O)CN2S(=O)(=O)c2cccc(Cl)c2)O1)NCc1ccc2c(c1)OCO2,inactive: 0.997
8,C[C@H](CO)N1C[C@H](C)[C@@H](CN(C)Cc2ccc(-c3ccccc3)cc2)Oc2ccc(NC(=O)Nc3cccc4ccccc34)cc2C1=O,inactive: 0.988
9,COc1cccc(-c2ccc3c(c2)O[C@@H](CN(C)C(=O)C2CC2)[C@@H](C)CN([C@H](C)CO)S3(=O)=O)c1,inactive: 0.989
10,C[C@H]1CN([C@@H](C)CO)S(=O)(=O)c2ccc(-c3cccc(C#N)c3)cc2O[C@H]1CN(C)C(=O)c1ccncc1,inactive: 1
11,C[C@H](CO)N1C[C@H](C)[C@@H](CN(C)C(=O)Nc2ccc(C(F)(F)F)cc2)Oc2ccc(NC(=O)Nc3ccc4c(c3)OCO4)cc2CC1=O,inactive: 1.04
12,CN(CC(=O)NC1CCCC1)S(=O)(=O)c1ccc2c(c1)c(=O)n(C)c(=O)n2C,inactive: 1.01
13,N=C(N)c1ccc(C(N)=O)cc1,inactive: 0.998
14,O=C(NCCCN1CCOCC1)c1cccnc1,inactive: 1.01
15,COc1ccc(S(=O)(=O)N(C)C[C@H]2Oc3ccc(N(C)C)cc3C(=O)N([C@H](C)CO)C[C@@H]2C)cc1,inactive: 1.05
16,COc1ccc(S(=O)(=O)N(C)C[C@@H]2Oc3ncc(-c4ccncc4)cc3C(=O)N([C@H](C)CO)C[C@H]2C)cc1,inactive: 0.999
17,COCC(=O)Nc1ccc2c(c1)OC[C@@H](C)N(C(=O)Cc1ccccn1)C[C@@H](C)[C@@H](OC)CN(C)C2=O,inactive: 1.03
18,COc1ccc(S(=O)(=O)Nc2ccc3c(c2)C(=O)N([C@H](C)CO)C[C@@H](C)[C@H](CN(C)C(=O)CCC(F)(F)F)OCCCC[C@@H](C)O3)cc1,inactive: 0.959
19,COc1cccc(NC(=O)N2C[C@H](O)COC[C@H]3O[C@@H](CC(=O)NCc4ccccc4F)CC[C@@H]32)c1,inactive: 1
20,Cc1nn(C)cc1NC(=O)C[C@H]1CC[C@H]2[C@H](COc3ccc(NC(=O)C4CCOCC4)cc3C(=O)N2C)O1,inactive: 0.978

# From the supplement of paper PMC9446081
